Results: the supplement of paper PMC4604168 (melanoma cell lines)
The other results are listed elsewhere or left out. Single values are uncertain, as repeats are few or missing.

Tests used:
Experiment in all cases: cell count relative to DMSO control; melanoma cells; higher = more viable cells
Conditions in all cases: library dose: low library concentration; 72 h
[1] = test system: WM115
[2] = test system: WM1716
[3] = test system: WM1745
[4] = test system: WM3526
[5] = test system: WM3619
[6] = test system: WM451Lu
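Note: cell number obtained by counting DAPI-stained nuclei in high-throughput microscope images with image analysis software, screen run in 1,536-well plates.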

SMILES	cell count [1]	cell count [2]	cell count [3]	cell count [4]	cell count [5]	cell count [6]
O=C(O)c1ccc2c(c1)nc(Nc1cccc(Cl)c1)c1ccncc12 + Cn1nnc2c(C(N)=O)ncn2c1=O [temozolomide] (first compound 0.4 µM, partner dose 2 µM)	99.8%	85.9%	97.5%	80.2%	94.5%	54.8%
O=C(Nc1cc(C(F)(F)F)cc(C(F)(F)F)c1)c1cc(Cl)ccc1O + Nc1cccc2c1CN(C1CCC(=O)NC1=O)C2=O [lenalidomide] (first compound 0.016 µM, partner dose 1 µM)	102%	128%	126%	132%	88.3%	119%
O=C(Nc1cc(C(F)(F)F)cc(C(F)(F)F)c1)c1cc(Cl)ccc1O + Cc1cc(Nc2cc(N3CCN(C)CC3)nc(/C=C/c3ccccc3)n2)n[nH]1 [ENMD2076] (first compound 0.016 µM, partner dose 0.04 µM)	102%	79.1%	99.6%	108%	91.6%	83.9%
O=C(O)[C@@H]1[O][Sb](=[O])([O][Sb]2(=[O])[O][C@H]([C@H](O)CO)[C@H](O)[C@H](C(=O)O)[O]2)[O][C@H]([C@H](O)CO)[C@@H]1O (stereo not given in full) [stibogluconate] + OCCn1cc(-c2cnc3nnn(Cc4ccc5ncccc5c4)c3n2)cn1 [PF04217903] (first compound 2 µM, partner dose 1 µM)	89.5%	96.4%	94.1%	105%	90.2%	95.2%
O=C(O)[C@@H]1[O][Sb](=[O])([O][Sb]2(=[O])[O][C@H]([C@H](O)CO)[C@H](O)[C@H](C(=O)O)[O]2)[O][C@H]([C@H](O)CO)[C@@H]1O (stereo not given in full) [stibogluconate] + Nc1nc(F)nc2c1ncn2[C@@H]1O[C@H](CO)[C@@H](O)[C@@H]1O [fludarabine] (first compound 2 µM, partner dose 0.2 µM)	83.3%	90%	111%	31.8%	92.6%	42.6%
O=C(O)c1ccc2c(c1)nc(Nc1cccc(Cl)c1)c1ccncc12 + O=C1NC(=O)/C(=C/c2ccc(-c3ccc(F)cc3O)o2)S1 [AS252424] (first compound 0.4 µM, partner dose 1 µM)	97.1%	83.1%	82.3%	87.3%	106%	103%
O=C(Nc1cc(C(F)(F)F)cc(C(F)(F)F)c1)c1cc(Cl)ccc1O + O=C(Nc1ccccc1)c1cc([N+](=O)[O-])ccc1Cl [GW9662] (first compound 0.016 µM, partner dose 2 µM)	103%	105%	97.8%	86.7%	100%	95.7%
O=C(O)[C@@H]1[O][Sb](=[O])([O][Sb]2(=[O])[O][C@H]([C@H](O)CO)[C@H](O)[C@H](C(=O)O)[O]2)[O][C@H]([C@H](O)CO)[C@@H]1O (stereo not given in full) [stibogluconate] + O=C(CCCCCCC(=O)Nc1ccccc1)NO [vorinostat] (first compound 2 µM, partner dose 0.08 µM)	106%	120%	5.84%	103%	88.1%	89.4%
O=C(O)[C@@H]1[O][Sb](=[O])([O][Sb]2(=[O])[O][C@H]([C@H](O)CO)[C@H](O)[C@H](C(=O)O)[O]2)[O][C@H]([C@H](O)CO)[C@@H]1O (stereo not given in full) [stibogluconate] + Cc1ccc(NC(=O)c2cccc(N(C)C)c2)cc1NC(=O)c1ccc(O)cc1 [ZM336372] (first compound 2 µM, partner dose 2 µM)	97%	103%	90.3%	103%	93%	111%
O=C(Nc1cc(C(F)(F)F)cc(C(F)(F)F)c1)c1cc(Cl)ccc1O + N#Cc1c(O)c2c(-c3ccc(-c4ccccc4O)cc3)csc2[nH]c1=O [A769662] (first compound 0.016 µM, partner dose 2 µM)	93%	116%	108%	145%	147%	89.2%
Cn1nnc2c(C(N)=O)ncn2c1=O [temozolomide] + CN(NC(=O)CC(=O)NN(C)C(=S)c1ccccc1)C(=S)c1ccccc1 [STA4783] (first compound 2 µM, partner dose 0.006 µM)	87.8%	51%	32%	110%	9.61%	127%
O=C(Nc1ccccc1)c1cc([N+](=O)[O-])ccc1Cl + CC(C)CCN1c2nc(Nc3cc(F)c(O)c(F)c3)ncc2N(C)C(=O)C1C [BID1870] (first compound 2 µM, partner dose 0.2 µM)	81.9%	92%	89.1%	101%	111%	109%
O=C(Nc1ccccc1)c1cc([N+](=O)[O-])ccc1Cl + COC(=O)c1sccc1S(=O)(=O)Nc1ccc(Nc2ccccc2)cc1OC [GSK0660] (first compound 2 µM, partner dose 1 µM)	93.4%	101%	87%	89.5%	90.8%	110%
O=C(Nc1cc(C(F)(F)F)cc(C(F)(F)F)c1)c1cc(Cl)ccc1O + O=C(O)c1ccc(-c2c[nH]c3ncc(-c4ccccc4)cc23)cc1C1CCCC1 [GSK650394] (first compound 0.016 µM, partner dose 0.16 µM)	91.2%	96.5%	112%	107%	96.5%	101%
O=C(Nc1cc(C(F)(F)F)cc(C(F)(F)F)c1)c1cc(Cl)ccc1O + COCC[n+]1c2c(n(Cc3cnccn3)c1C)C(=O)c1ccccc1C2=O [YM155] (first compound 0.016 µM, partner dose 0.0004 µM)	108%	112%	101%	101%	93.9%	80.4%
O=C(O)c1ccc2c(c1)nc(Nc1cccc(Cl)c1)c1ccncc12 + COc1ccc(-c2ccc3c(N4CCOCC4)nc(N4C[C@@H](C)O[C@@H](C)C4)nc3n2)cc1CO [KU0063794] (first compound 0.4 µM, partner dose 0.02 µM)	112%	92.7%	89.4%	91.5%	111%	88%
O=C(O)[C@@H]1[O][Sb](=[O])([O][Sb]2(=[O])[O][C@H]([C@H](O)CO)[C@H](O)[C@H](C(=O)O)[O]2)[O][C@H]([C@H](O)CO)[C@@H]1O (stereo not given in full) [stibogluconate] + C=CCn1c(=O)c2cnc(Nc3ccc(N4CCN(C)CC4)cc3)nc2n1-c1cccc(C(C)(C)O)n1 [MK1775] (first compound 2 µM, partner dose 0.02 µM)	83.3%	83.7%	56.4%	87%	88.1%	116%
O=C(O)c1ccc2c(c1)nc(Nc1cccc(Cl)c1)c1ccncc12 + COc1cc(Nc2ncc(F)c(Nc3ccc4c(n3)NC(=O)C(C)(C)O4)n2)cc(OC)c1OC [Tamatinib] (first compound 0.4 µM, partner dose 0.4 µM)	94.2%	89.1%	70.1%	77.9%	80.5%	94.3%
O=C(O)[C@@H]1[O][Sb](=[O])([O][Sb]2(=[O])[O][C@H]([C@H](O)CO)[C@H](O)[C@H](C(=O)O)[O]2)[O][C@H]([C@H](O)CO)[C@@H]1O (stereo not given in full) [stibogluconate] + O=C(Nc1ccccc1)c1cc([N+](=O)[O-])ccc1Cl [GW9662] (first compound 2 µM, partner dose 2 µM)	89.9%	102%	98.9%	124%	89.9%	98.7%
O=C(O)c1ccc2c(c1)nc(Nc1cccc(Cl)c1)c1ccncc12 + COc1cc2c(Oc3ccc4[nH]c(C)cc4c3F)ncnc2cc1OCCCN1CCCC1 [cediranib] (first compound 0.4 µM, partner dose 0.4 µM)	101%	82%	96.8%	78.7%	102%	80.5%
O=C(Nc1cc(C(F)(F)F)cc(C(F)(F)F)c1)c1cc(Cl)ccc1O + O=C(O)[C@@H]1[O][Sb](=[O])([O][Sb]2(=[O])[O][C@H]([C@H](O)CO)[C@H](O)[C@H](C(=O)O)[O]2)[O][C@H]([C@H](O)CO)[C@@H]1O [stibogluconate] (first compound 0.016 µM, partner dose 2 µM)	89.3%	99.4%	86.5%	103%	92.3%	173%
O=C(Nc1cc(C(F)(F)F)cc(C(F)(F)F)c1)c1cc(Cl)ccc1O + C[C@@H](N)c1ccc(C(=O)Nc2ccnc3[nH]ccc23)cc1 [RKI983] (first compound 0.016 µM, partner dose 0.4 µM)	137%	64.3%	90%	114%	104%	111%
O=C(Nc1ccccc1)c1cc([N+](=O)[O-])ccc1Cl + Oc1nc(-c2ccc(C(F)(F)F)cc2)nc2c1CSCC2 [XAV939] (first compound 2 µM, partner dose 2 µM)	98.6%	60.8%	82.9%	115%	93.1%	98%
Cc1cc(N2CCOCC2)cc2[nH]c(-c3c(NC[C@@H](O)c4cccc(Cl)c4)cc[nH]c3=O)nc12 + C[C@@H]1CCN(C(=O)CC#N)C[C@@H]1N(C)c1ncnc2[nH]ccc12 [CP690550] (first compound 0.2 µM, partner dose 1 µM)	110%	90.9%	68.5%	122%	53.9%	112%
O=C(O)[C@@H]1[O][Sb](=[O])([O][Sb]2(=[O])[O][C@H]([C@H](O)CO)[C@H](O)[C@H](C(=O)O)[O]2)[O][C@H]([C@H](O)CO)[C@@H]1O (stereo not given in full) [stibogluconate] + OCc1c[nH]c2ccccc12 [Indole-3-carbinol] (first compound 2 µM, partner dose 0.8 µM)	98.9%	96.1%	96%	83.9%	96.9%	89.7%
